Data published in US20230192795A1 (Hoffmann-La Roche, published 2023).

biological target: T1, Human IL7Ra-IL2Rγ-Fc heterodimer (human, biotin on the avi tag); test: SPR, captured from supernatant, 800 nM receptor-Fc single injection
T1 construct: Extracellular domains of IL-7Ralpha and IL-2Rgamma fused to Fc knob and Fc hole; also called hu IL7Ra-IL2Rγ-Fc avi biotin; human IL7Ra-IL2Rg-Fc biotin
Method: Surface Plasmon Resonacne (SPR) experiments were performed on a Biacore T200 with HBS-EP+ as running buffer (0.01 M HEPES pH 7.4, 0.15 M NaCl, 0.005% Surfactant P20 (BR-1006-69, GE Healthcare)). Fc specific antibodies (Roche internal) were directly immobilized by amine coupling on a CM5 chip (GE Healthcare). The PDI-IL7 constructs were captured from supernatants for 120 s at 100 nM. […] Only the extracellular domains were fused to Fc domains, produced in HEK Expi Cells and purified by two-step column chromatography including affinity purification via Protein A followed by size-exclusion chromatography. A single injection of 800 nM hu IL 7Ra-IL2Rγ-Fc heterodimer was passed over the ligand at 30 µ1/min for 240 sec to record the association phase. The dissociation phase was monitored for 360 s and triggered by switching from the sample solution to HBS-EP+. The chip surface was regenerated after every cycle using one injection of 10 mM glycine pH 2 for 60 sec. Bulk refractive index differences were corrected for by subtracting the response obtained on the reference flow cell 1. The response units after the capture step and at the end of the association phase were recorded and a ratio of binding to capture was calculated. The single binding curves were fitted in the dissociation phase to obtain a koff for ease of comparison (Biacore Evaluation software, GE Healthcare).
The ratio of binding to capture was calculated and the dissociation phase was fitted to a single curve to support the characterization of the off-rate.

koff | Binder
0.000586 s⁻¹ | PD1-IL7-VAR10 (Q22K) (other, Format as m1; IL-7 with Q22K) light: DIVMTQSPDSLAVSLGERATINCKASESVDTSDNSFIHWYQQKPGQSPKLLIYRSSTLESGVPDRFSGSGSGTDFTLTISSLQAEDVAVYYCQQNYDVPWTFGQGTKVEIKRTVAAPSVFIFPPSDEQLKSGTASVVCLLNNFYPREAKVQWKVDNALQSGNSQESVTEQDSKDSTYSLSSTLTLSKADYEKHKVYACEVTHQGLSSPVTKSFNRGEC heavy 1: EVQLLESGGGLVQPGGSLRLSCAASGFSFSSYTMSWVRQAPGKGLEWVATISGGGRDIYYPDSVKGRFTISRDNSKNTLYLQMNSLRAEDTAVYYCVLLTGRVYFALDSWGQGTLVTVSSASTKGPSVFPLAPSSKSTSGGTAALGCLVKDYFPEPVTVSWNSGALTSGVHTFPAVLQSSGLYSLSSVVTVPSSSLGTQTYICNVNHKPSNTKVDKKVEPKSCDKTHTCPPCPAPEAAGGPSVFLFPPKPKDTLMISRTPEVTCVVVDVSHEDPEVKFNWYVDGVEVHNAKTKPREEQYNSTYRVVSVLTVLHQDWLNGKEYKCKVSNKALGAPIEKTISKAKGQPREPQVCTLPPSRDELTKNQVSLSCAVKGFYPSDIAVEWESNGQPENNYKTTPPVLDSDGSFFLVSKLTVDKSRWQQGNVFSCSVMHEALHNHYTQKSLSLSPGK heavy 2: EVQLLESGGGLVQPGGSLRLSCAASGFSFSSYTMSWVRQAPGKGLEWVATISGGGRDIYYPDSVKGRFTISRDNSKNTLYLQMNSLRAEDTAVYYCVLLTGRVYFALDSWGQGTLVTVSSASTKGPSVFPLAPSSKSTSGGTAALGCLVKDYFPEPVTVSWNSGALTSGVHTFPAVLQSSGLYSLSSVVTVPSSSLGTQTYICNVNHKPSNTKVDKKV[human IgG1 Fc with changes left out]GGGGSGGGGSGGGGSDCDIEGKDGKQYESVLMVSIDKLLDSMKEIGSNCLNNEFNFFKRHICDANKEGMFLFRAARKLRQFLKMNSTGDFDLHLLKVSEGTTILLNCTGQVKGRKPAALGEAQPTKSLEENKSLKEQKKLNDLCFLKRLLQEIKTCWNKILMGTKEH
0.000687 s⁻¹ | PD1-IL7-VAR11 (D25A) (other, Format as m1; IL-7 with D25A) light: DIVMTQSPDSLAVSLGERATINCKASESVDTSDNSFIHWYQQKPGQSPKLLIYRSSTLESGVPDRFSGSGSGTDFTLTISSLQAEDVAVYYCQQNYDVPWTFGQGTKVEIKRTVAAPSVFIFPPSDEQLKSGTASVVCLLNNFYPREAKVQWKVDNALQSGNSQESVTEQDSKDSTYSLSSTLTLSKADYEKHKVYACEVTHQGLSSPVTKSFNRGEC heavy 1: EVQLLESGGGLVQPGGSLRLSCAASGFSFSSYTMSWVRQAPGKGLEWVATISGGGRDIYYPDSVKGRFTISRDNSKNTLYLQMNSLRAEDTAVYYCVLLTGRVYFALDSWGQGTLVTVSSASTKGPSVFPLAPSSKSTSGGTAALGCLVKDYFPEPVTVSWNSGALTSGVHTFPAVLQSSGLYSLSSVVTVPSSSLGTQTYICNVNHKPSNTKVDKKVEPKSCDKTHTCPPCPAPEAAGGPSVFLFPPKPKDTLMISRTPEVTCVVVDVSHEDPEVKFNWYVDGVEVHNAKTKPREEQYNSTYRVVSVLTVLHQDWLNGKEYKCKVSNKALGAPIEKTISKAKGQPREPQVCTLPPSRDELTKNQVSLSCAVKGFYPSDIAVEWESNGQPENNYKTTPPVLDSDGSFFLVSKLTVDKSRWQQGNVFSCSVMHEALHNHYTQKSLSLSPGK heavy 2: EVQLLESGGGLVQPGGSLRLSCAASGFSFSSYTMSWVRQAPGKGLEWVATISGGGRDIYYPDSVKGRFTISRDNSKNTLYLQMNSLRAEDTAVYYCVLLTGRVYFALDSWGQGTLVTVSSASTKGPSVFPLAPSSKSTSGGTAALGCLVKDYFPEPVTVSWNSGALTSGVHTFPAVLQSSGLYSLSSVVTVPSSSLGTQTYICNVNHKPSNTKVDKKV[human IgG1 Fc with changes left out]GGGGSGGGGSGGGGSDCDIEGKDGKQYESVLMVSIDQLLASMKEIGSNCLNNEFNFFKRHICDANKEGMFLFRAARKLRQFLKMNSTGDFDLHLLKVSEGTTILLNCTGQVKGRKPAALGEAQPTKSLEENKSLKEQKKLNDLCFLKRLLQEIKTCWNKILMGTKEH
0.000681 s⁻¹ | PD1-IL7-VAR13 (D74A) (other, Format as m1; IL-7 with D74A) light: DIVMTQSPDSLAVSLGERATINCKASESVDTSDNSFIHWYQQKPGQSPKLLIYRSSTLESGVPDRFSGSGSGTDFTLTISSLQAEDVAVYYCQQNYDVPWTFGQGTKVEIKRTVAAPSVFIFPPSDEQLKSGTASVVCLLNNFYPREAKVQWKVDNALQSGNSQESVTEQDSKDSTYSLSSTLTLSKADYEKHKVYACEVTHQGLSSPVTKSFNRGEC heavy 1: EVQLLESGGGLVQPGGSLRLSCAASGFSFSSYTMSWVRQAPGKGLEWVATISGGGRDIYYPDSVKGRFTISRDNSKNTLYLQMNSLRAEDTAVYYCVLLTGRVYFALDSWGQGTLVTVSSASTKGPSVFPLAPSSKSTSGGTAALGCLVKDYFPEPVTVSWNSGALTSGVHTFPAVLQSSGLYSLSSVVTVPSSSLGTQTYICNVNHKPSNTKVDKKVEPKSCDKTHTCPPCPAPEAAGGPSVFLFPPKPKDTLMISRTPEVTCVVVDVSHEDPEVKFNWYVDGVEVHNAKTKPREEQYNSTYRVVSVLTVLHQDWLNGKEYKCKVSNKALGAPIEKTISKAKGQPREPQVCTLPPSRDELTKNQVSLSCAVKGFYPSDIAVEWESNGQPENNYKTTPPVLDSDGSFFLVSKLTVDKSRWQQGNVFSCSVMHEALHNHYTQKSLSLSPGK heavy 2: EVQLLESGGGLVQPGGSLRLSCAASGFSFSSYTMSWVRQAPGKGLEWVATISGGGRDIYYPDSVKGRFTISRDNSKNTLYLQMNSLRAEDTAVYYCVLLTGRVYFALDSWGQGTLVTVSSASTKGPSVFPLAPSSKSTSGGTAALGCLVKDYFPEPVTVSWNSGALTSGVHTFPAVLQSSGLYSLSSVVTVPSSSLGTQTYICNVNHKPSNTKVDKKV[human IgG1 Fc with changes left out]GGGGSGGGGSGGGGSDCDIEGKDGKQYESVLMVSIDQLLDSMKEIGSNCLNNEFNFFKRHICDANKEGMFLFRAARKLRQFLKMNSTGAFDLHLLKVSEGTTILLNCTGQVKGRKPAALGEAQPTKSLEENKSLKEQKKLNDLCFLKRLLQEIKTCWNKILMGTKEH
0.000802 s⁻¹ | PD1-IL7-VAR14 (D74K) (other, Format as m1; IL-7 with D74K) light: DIVMTQSPDSLAVSLGERATINCKASESVDTSDNSFIHWYQQKPGQSPKLLIYRSSTLESGVPDRFSGSGSGTDFTLTISSLQAEDVAVYYCQQNYDVPWTFGQGTKVEIKRTVAAPSVFIFPPSDEQLKSGTASVVCLLNNFYPREAKVQWKVDNALQSGNSQESVTEQDSKDSTYSLSSTLTLSKADYEKHKVYACEVTHQGLSSPVTKSFNRGEC heavy 1: EVQLLESGGGLVQPGGSLRLSCAASGFSFSSYTMSWVRQAPGKGLEWVATISGGGRDIYYPDSVKGRFTISRDNSKNTLYLQMNSLRAEDTAVYYCVLLTGRVYFALDSWGQGTLVTVSSASTKGPSVFPLAPSSKSTSGGTAALGCLVKDYFPEPVTVSWNSGALTSGVHTFPAVLQSSGLYSLSSVVTVPSSSLGTQTYICNVNHKPSNTKVDKKVEPKSCDKTHTCPPCPAPEAAGGPSVFLFPPKPKDTLMISRTPEVTCVVVDVSHEDPEVKFNWYVDGVEVHNAKTKPREEQYNSTYRVVSVLTVLHQDWLNGKEYKCKVSNKALGAPIEKTISKAKGQPREPQVCTLPPSRDELTKNQVSLSCAVKGFYPSDIAVEWESNGQPENNYKTTPPVLDSDGSFFLVSKLTVDKSRWQQGNVFSCSVMHEALHNHYTQKSLSLSPGK heavy 2: EVQLLESGGGLVQPGGSLRLSCAASGFSFSSYTMSWVRQAPGKGLEWVATISGGGRDIYYPDSVKGRFTISRDNSKNTLYLQMNSLRAEDTAVYYCVLLTGRVYFALDSWGQGTLVTVSSASTKGPSVFPLAPSSKSTSGGTAALGCLVKDYFPEPVTVSWNSGALTSGVHTFPAVLQSSGLYSLSSVVTVPSSSLGTQTYICNVNHKPSNTKVDKKV[human IgG1 Fc with changes left out]GGGGSGGGGSGGGGSDCDIEGKDGKQYESVLMVSIDQLLDSMKEIGSNCLNNEFNFFKRHICDANKEGMFLFRAARKLRQFLKMNSTGKFDLHLLKVSEGTTILLNCTGQVKGRKPAALGEAQPTKSLEENKSLKEQKKLNDLCFLKRLLQEIKTCWNKILMGTKEH
0.000715 s⁻¹ | PD1-IL7-VAR12 (D25K) (other, Format as m1; IL-7 with D25K) light: DIVMTQSPDSLAVSLGERATINCKASESVDTSDNSFIHWYQQKPGQSPKLLIYRSSTLESGVPDRFSGSGSGTDFTLTISSLQAEDVAVYYCQQNYDVPWTFGQGTKVEIKRTVAAPSVFIFPPSDEQLKSGTASVVCLLNNFYPREAKVQWKVDNALQSGNSQESVTEQDSKDSTYSLSSTLTLSKADYEKHKVYACEVTHQGLSSPVTKSFNRGEC heavy 1: EVQLLESGGGLVQPGGSLRLSCAASGFSFSSYTMSWVRQAPGKGLEWVATISGGGRDIYYPDSVKGRFTISRDNSKNTLYLQMNSLRAEDTAVYYCVLLTGRVYFALDSWGQGTLVTVSSASTKGPSVFPLAPSSKSTSGGTAALGCLVKDYFPEPVTVSWNSGALTSGVHTFPAVLQSSGLYSLSSVVTVPSSSLGTQTYICNVNHKPSNTKVDKKVEPKSCDKTHTCPPCPAPEAAGGPSVFLFPPKPKDTLMISRTPEVTCVVVDVSHEDPEVKFNWYVDGVEVHNAKTKPREEQYNSTYRVVSVLTVLHQDWLNGKEYKCKVSNKALGAPIEKTISKAKGQPREPQVCTLPPSRDELTKNQVSLSCAVKGFYPSDIAVEWESNGQPENNYKTTPPVLDSDGSFFLVSKLTVDKSRWQQGNVFSCSVMHEALHNHYTQKSLSLSPGK heavy 2: EVQLLESGGGLVQPGGSLRLSCAASGFSFSSYTMSWVRQAPGKGLEWVATISGGGRDIYYPDSVKGRFTISRDNSKNTLYLQMNSLRAEDTAVYYCVLLTGRVYFALDSWGQGTLVTVSSASTKGPSVFPLAPSSKSTSGGTAALGCLVKDYFPEPVTVSWNSGALTSGVHTFPAVLQSSGLYSLSSVVTVPSSSLGTQTYICNVNHKPSNTKVDKKV[human IgG1 Fc with changes left out]GGGGSGGGGSGGGGSDCDIEGKDGKQYESVLMVSIDQLLKSMKEIGSNCLNNEFNFFKRHICDANKEGMFLFRAARKLRQFLKMNSTGDFDLHLLKVSEGTTILLNCTGQVKGRKPAALGEAQPTKSLEENKSLKEQKKLNDLCFLKRLLQEIKTCWNKILMGTKEH
